# Laboratory results from paper PMC10219652.
# Legend:
# [1] = molecular target: GFP-SNX1 (UniProt Q13596); assay: co-IP; GBP-IP of GFP-tagged SNX proteins from lysates of transfected cells (HeLa by the text; HEK293T by the legends of Figure 6A, C and I; the legend of Figure 6I also says GFP trap); endogenous TfR, CIMPR, SNX1 or BSG detected by immunoblot; values are the ratio of prey to GFP band intensity
# [2] = molecular target: T1, GFP-SNX32 (UniProt Q86XE0); assay: as above
# T1 sequence: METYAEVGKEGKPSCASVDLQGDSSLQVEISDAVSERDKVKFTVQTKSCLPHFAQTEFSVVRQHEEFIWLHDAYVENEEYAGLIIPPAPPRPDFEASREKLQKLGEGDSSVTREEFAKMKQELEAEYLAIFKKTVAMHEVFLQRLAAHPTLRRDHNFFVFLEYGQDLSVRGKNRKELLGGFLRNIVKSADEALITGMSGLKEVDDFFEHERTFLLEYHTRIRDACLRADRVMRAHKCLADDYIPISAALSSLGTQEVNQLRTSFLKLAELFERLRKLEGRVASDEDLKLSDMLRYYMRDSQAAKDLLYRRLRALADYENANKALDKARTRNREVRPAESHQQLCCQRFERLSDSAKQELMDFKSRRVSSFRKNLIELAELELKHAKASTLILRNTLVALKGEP
# UniProt Q13596, sequence (Q13596 whole entry): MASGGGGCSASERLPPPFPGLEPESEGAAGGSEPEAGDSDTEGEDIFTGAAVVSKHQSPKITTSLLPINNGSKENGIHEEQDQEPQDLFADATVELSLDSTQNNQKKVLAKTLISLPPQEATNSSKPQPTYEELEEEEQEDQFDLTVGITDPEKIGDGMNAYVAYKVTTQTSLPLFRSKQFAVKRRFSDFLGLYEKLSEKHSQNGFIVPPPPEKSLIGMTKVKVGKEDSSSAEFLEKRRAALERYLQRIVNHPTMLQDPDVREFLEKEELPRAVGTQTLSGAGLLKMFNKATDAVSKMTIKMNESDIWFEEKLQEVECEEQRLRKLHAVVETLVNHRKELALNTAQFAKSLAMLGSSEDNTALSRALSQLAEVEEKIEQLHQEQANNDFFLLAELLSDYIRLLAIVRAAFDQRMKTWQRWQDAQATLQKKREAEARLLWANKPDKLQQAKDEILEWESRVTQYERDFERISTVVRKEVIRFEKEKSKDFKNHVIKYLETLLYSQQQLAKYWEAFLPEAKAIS
ratio of CIMPR to GFP band intensity [1],ratio of CIMPR to GFP band intensity [2],Substance
0.12,–,"Cation-Independent Mannose-6-Phosphate Receptor (CIMPR) (a stretch of the chain, no sequence given) (receptor; other documents disagree on this pair)"
–,0.38,"Cation-Independent Mannose-6-Phosphate Receptor (CIMPR) (a stretch of the chain, no sequence given)"
